According to paper PMC3279423:
Like-named read-outs stand apart in the source and are kept apart here. These are yes or no findings as the source states them, for the method shown. For part of these data: Binding seen in cells or lysates may run through a third protein. Some binding calls cover weakened binding; strength is not graded here. For part of these data: Where a sequence is shown, tags or fusion partners need not be part of it.

Sequences of proteins named here, by UniProt entry; tags and fusion partners are left off. A change or cut given only in a name is not applied to a line headed by its entry. Residues count along the entry.
UniProt Q99816: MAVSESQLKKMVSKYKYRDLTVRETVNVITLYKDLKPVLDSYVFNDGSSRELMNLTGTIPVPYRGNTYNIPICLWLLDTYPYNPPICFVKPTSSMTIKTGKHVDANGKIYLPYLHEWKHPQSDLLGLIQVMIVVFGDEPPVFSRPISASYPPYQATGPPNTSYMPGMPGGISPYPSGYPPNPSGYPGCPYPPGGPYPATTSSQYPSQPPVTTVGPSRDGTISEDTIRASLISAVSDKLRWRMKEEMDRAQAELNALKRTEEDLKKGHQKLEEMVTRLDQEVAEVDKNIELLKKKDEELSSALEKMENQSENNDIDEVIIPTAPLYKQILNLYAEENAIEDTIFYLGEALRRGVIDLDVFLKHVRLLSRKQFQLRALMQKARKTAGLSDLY
TSG101 235-313 (pVJL10-TSG101 235-313): residues 235-313 of Q99816
TSG101 235-273 (pVJL10-TSG101 235-273): residues 235-273 of Q99816
TSG101 235-257 (pVJL10-TSG101 235-257): residues 235-257 of Q99816
TSG101 274-313 (pVJL10-TSG101 274-313): residues 274-313 of Q99816
UniProt Q7L804: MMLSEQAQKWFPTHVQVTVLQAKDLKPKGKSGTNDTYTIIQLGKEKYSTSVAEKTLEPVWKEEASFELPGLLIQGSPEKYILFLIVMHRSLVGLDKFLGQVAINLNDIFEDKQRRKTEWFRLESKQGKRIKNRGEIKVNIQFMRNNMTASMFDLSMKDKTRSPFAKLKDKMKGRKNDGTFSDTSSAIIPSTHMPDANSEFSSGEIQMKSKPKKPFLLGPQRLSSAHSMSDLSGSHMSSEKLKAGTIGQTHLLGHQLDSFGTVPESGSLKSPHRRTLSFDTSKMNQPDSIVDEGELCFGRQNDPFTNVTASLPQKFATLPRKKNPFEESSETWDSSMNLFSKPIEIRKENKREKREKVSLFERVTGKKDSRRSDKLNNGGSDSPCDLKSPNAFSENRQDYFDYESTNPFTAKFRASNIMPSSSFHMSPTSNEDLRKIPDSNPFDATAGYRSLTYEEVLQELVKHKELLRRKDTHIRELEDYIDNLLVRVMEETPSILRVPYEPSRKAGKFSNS

Assays:
[1] = molecular target: TSG101 (tumor susceptibility gene 101), pVJL10-TSG101 two-hybrid bait (UniProt Q99816); experiment: two-hybrid; pVJL10 (bait) and pGADGH (prey) constructs co-transformed into S. cerevisiae L40; growth on medium lacking tryptophan, leucine and histidine with 1 mM 3-AT, 30°C
[2] = molecular target: T1, Xpress-FIP3 (pcDNA3.1-HisB/FIP3) (UniProt O75154); experiment: co-IP; HeLa cells co-transfected; lysate in 125 mM NaCl, 0.5% Igepal CA-630, 50 mM HEPES pH 7.4, 1 mM MgCl2; anti-Xpress antibody on magnetic beads, 3 h at 4°C; blot with anti-GFP
T1 sequence: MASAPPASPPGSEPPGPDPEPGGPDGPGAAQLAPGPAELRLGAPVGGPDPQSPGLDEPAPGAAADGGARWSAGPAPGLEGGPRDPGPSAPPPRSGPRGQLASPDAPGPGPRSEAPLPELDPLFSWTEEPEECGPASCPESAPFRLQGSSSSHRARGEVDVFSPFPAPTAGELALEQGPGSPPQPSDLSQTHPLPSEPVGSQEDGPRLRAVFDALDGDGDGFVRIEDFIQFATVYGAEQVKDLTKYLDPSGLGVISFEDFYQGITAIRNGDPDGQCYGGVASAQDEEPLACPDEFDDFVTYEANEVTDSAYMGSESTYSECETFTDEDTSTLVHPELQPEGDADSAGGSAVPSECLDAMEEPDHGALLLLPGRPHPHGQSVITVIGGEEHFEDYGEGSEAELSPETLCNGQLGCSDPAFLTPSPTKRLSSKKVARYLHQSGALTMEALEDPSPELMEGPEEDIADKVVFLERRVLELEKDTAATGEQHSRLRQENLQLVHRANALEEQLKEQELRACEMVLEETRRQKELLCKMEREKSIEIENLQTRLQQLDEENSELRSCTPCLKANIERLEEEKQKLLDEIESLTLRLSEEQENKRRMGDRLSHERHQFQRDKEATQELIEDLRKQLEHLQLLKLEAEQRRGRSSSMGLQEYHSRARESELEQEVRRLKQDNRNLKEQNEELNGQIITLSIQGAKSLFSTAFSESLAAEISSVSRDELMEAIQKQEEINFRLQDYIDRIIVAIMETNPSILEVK

[3] = molecular target: T2, Xpress-FIP4 (pcDNA3.1-HisB/FIP4) (UniProt Q86YS3); experiment: as above
T2 sequence: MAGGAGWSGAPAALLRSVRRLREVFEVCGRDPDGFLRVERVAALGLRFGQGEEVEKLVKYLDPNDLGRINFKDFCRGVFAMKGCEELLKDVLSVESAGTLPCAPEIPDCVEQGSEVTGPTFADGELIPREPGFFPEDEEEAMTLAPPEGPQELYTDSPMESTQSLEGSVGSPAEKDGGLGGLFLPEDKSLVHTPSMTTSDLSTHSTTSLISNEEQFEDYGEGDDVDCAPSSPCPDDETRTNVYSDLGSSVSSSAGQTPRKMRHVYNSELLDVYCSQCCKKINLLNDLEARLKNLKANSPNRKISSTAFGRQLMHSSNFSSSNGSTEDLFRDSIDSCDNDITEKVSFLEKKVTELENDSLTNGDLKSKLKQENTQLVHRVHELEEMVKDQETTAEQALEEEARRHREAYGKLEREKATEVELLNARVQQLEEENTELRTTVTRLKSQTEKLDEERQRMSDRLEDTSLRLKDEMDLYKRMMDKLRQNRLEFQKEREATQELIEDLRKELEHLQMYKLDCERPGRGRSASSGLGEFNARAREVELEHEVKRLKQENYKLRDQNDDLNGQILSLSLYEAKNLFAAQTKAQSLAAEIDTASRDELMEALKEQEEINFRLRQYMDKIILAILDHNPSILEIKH

[4] = molecular target: TSG101 V274P (pVJL10-TSG101 V274P) (UniProt Q99816); experiment: two-hybrid; pVJL10 (bait) and pGADGH (prey) constructs co-transformed into S. cerevisiae L40; growth on medium lacking tryptophan, leucine and histidine with 1 mM 3-AT, 30°C
[5] = molecular target: TSG101 235-257 (pVJL10-TSG101 235-257) (UniProt Q99816); experiment: as above
[6] = molecular target: TSG101 (tumor susceptibility gene 101), pVJL10-TSG101 two-hybrid bait (UniProt Q99816); experiment: as above; remark: listed apart in the source
[7] = molecular target: TSG101 274-290 (pVJL10-TSG101 274-290) (UniProt Q99816); experiment: as above
[8] = molecular target: TSG101 235-273 (pVJL10-TSG101 235-273) (UniProt Q99816); experiment: as above
[9] = molecular target: TSG101 274-313 (pVJL10-TSG101 274-313) (UniProt Q99816); experiment: as above
[10] = molecular target: TSG101 235-313 (pVJL10-TSG101 235-313) (UniProt Q99816); experiment: as above
[11] = molecular target: TSG101 N287P (pVJL10-TSG101 N287P) (UniProt Q99816); experiment: as above
[12] = molecular target: TSG101 K257P (pVJL10-TSG101 K257P) (UniProt Q99816); experiment: as above

## FIP2, pGADGH/FIP2 two-hybrid prey (from UniProt Q7L804 1-512)
[1]
  binding: no binding

## GFP-TSG101 (from UniProt Q99816 1-390)
[2]
  binding: binds
[3]
  binding: binds

B1: FIP4, pGADGH/FIP4 two-hybrid prey (protein, UniProt Q86YS3 1-637)
chain: MAGGAGWSGAPAALLRSVRRLREVFEVCGRDPDGFLRVERVAALGLRFGQGEEVEKLVKYLDPNDLGRINFKDFCRGVFAMKGCEELLKDVLSVESAGTLPCAPEIPDCVEQGSEVTGPTFADGELIPREPGFFPEDEEEAMTLAPPEGPQELYTDSPMESTQSLEGSVGSPAEKDGGLGGLFLPEDKSLVHTPSMTTSDLSTHSTTSLISNEEQFEDYGEGDDVDCAPSSPCPDDETRTNVYSDLGSSVSSSAGQTPRKMRHVYNSELLDVYCSQCCKKINLLNDLEARLKNLKANSPNRKISSTAFGRQLMHSSNFSSSNGSTEDLFRDSIDSCDNDITEKVSFLEKKVTELENDSLTNGDLKSKLKQENTQLVHRVHELEEMVKDQETTAEQALEEEARRHREAYGKLEREKATEVELLNARVQQLEEENTELRTTVTRLKSQTEKLDEERQRMSDRLEDTSLRLKDEMDLYKRMMDKLRQNRLEFQKEREATQELIEDLRKELEHLQMYKLDCERPGRGRSASSGLGEFNARAREVELEHEVKRLKQENYKLRDQNDDLNGQILSLSLYEAKNLFAAQTKAQSLAAEIDTASRDELMEALKEQEEINFRLRQYMDKIILAILDHNPSILEIKH
[4]
  binding: no binding
[5]
  binding: no binding
[6]
  binding: binds
[7]
  binding: no binding
[8]
  binding: no binding
[9]
  binding: no binding
[10]
  binding: binds
[11]
  binding: binds
[12]
  binding: no binding

B2: FIP4 L487P (pGADGH/FIP4 L487P) (protein, UniProt Q86YS3 1-637)
chain: MAGGAGWSGAPAALLRSVRRLREVFEVCGRDPDGFLRVERVAALGLRFGQGEEVEKLVKYLDPNDLGRINFKDFCRGVFAMKGCEELLKDVLSVESAGTLPCAPEIPDCVEQGSEVTGPTFADGELIPREPGFFPEDEEEAMTLAPPEGPQELYTDSPMESTQSLEGSVGSPAEKDGGLGGLFLPEDKSLVHTPSMTTSDLSTHSTTSLISNEEQFEDYGEGDDVDCAPSSPCPDDETRTNVYSDLGSSVSSSAGQTPRKMRHVYNSELLDVYCSQCCKKINLLNDLEARLKNLKANSPNRKISSTAFGRQLMHSSNFSSSNGSTEDLFRDSIDSCDNDITEKVSFLEKKVTELENDSLTNGDLKSKLKQENTQLVHRVHELEEMVKDQETTAEQALEEEARRHREAYGKLEREKATEVELLNARVQQLEEENTELRTTVTRLKSQTEKLDEERQRMSDRLEDTSLRLKDEMDLYKRMMDKLRQNRPEFQKEREATQELIEDLRKELEHLQMYKLDCERPGRGRSASSGLGEFNARAREVELEHEVKRLKQENYKLRDQNDDLNGQILSLSLYEAKNLFAAQTKAQSLAAEIDTASRDELMEALKEQEEINFRLRQYMDKIILAILDHNPSILEIKH
[6]
  binding: no binding

B3: FIP4 A495P (pGADGH/FIP4 A495P) (protein, UniProt Q86YS3 1-637)
chain: MAGGAGWSGAPAALLRSVRRLREVFEVCGRDPDGFLRVERVAALGLRFGQGEEVEKLVKYLDPNDLGRINFKDFCRGVFAMKGCEELLKDVLSVESAGTLPCAPEIPDCVEQGSEVTGPTFADGELIPREPGFFPEDEEEAMTLAPPEGPQELYTDSPMESTQSLEGSVGSPAEKDGGLGGLFLPEDKSLVHTPSMTTSDLSTHSTTSLISNEEQFEDYGEGDDVDCAPSSPCPDDETRTNVYSDLGSSVSSSAGQTPRKMRHVYNSELLDVYCSQCCKKINLLNDLEARLKNLKANSPNRKISSTAFGRQLMHSSNFSSSNGSTEDLFRDSIDSCDNDITEKVSFLEKKVTELENDSLTNGDLKSKLKQENTQLVHRVHELEEMVKDQETTAEQALEEEARRHREAYGKLEREKATEVELLNARVQQLEEENTELRTTVTRLKSQTEKLDEERQRMSDRLEDTSLRLKDEMDLYKRMMDKLRQNRLEFQKEREPTQELIEDLRKELEHLQMYKLDCERPGRGRSASSGLGEFNARAREVELEHEVKRLKQENYKLRDQNDDLNGQILSLSLYEAKNLFAAQTKAQSLAAEIDTASRDELMEALKEQEEINFRLRQYMDKIILAILDHNPSILEIKH
[6]
  binding: no binding

B4: Rip11, pGADGH/Rip11 two-hybrid prey (protein, UniProt Q9BXF6 1-653)
chain: MALVRGAEPAAGPSRWLPTHVQVTVLRARGLRGKSSGAGSTSDAYTVIQVGREKYSTSVVEKTHGCPEWREECSFELPPGALDGLLRAQEADAGPAPWAASSAAACELVLTTMHRSLIGVDKFLGQATVALDEVFGAGRAQHTQWYKLHSKPGKKEKERGEIEVTIQFTRNNLSASMFDLSMKDKPRSPFSKIRDKMKGKKKYDLESASAILPSSAIEDPDLGSLGKMGKAKGFFLRNKLRKSSLTQSNTSLGSDSTLSSASGSLAYQGPGAELLTRSPSRSSWLSTEGGRDSAQSPKLFTHKRTYSDEANQMRVAPPRALLDLQGHLDAASRSSLCVNGSHIYNEEPQGPVRHRSSISGSLPSSGSLQAVSSRFSEEGPRSTDDTWPRGSRSNSSSEAVLGQEELSAQAKVLAPGASHPGEEEGARLPEGKPVQVATPIVASSEAVAEKEGARKEERKPRMGLFHHHHQGLSRSELGRRSSLGEKGGPILGASPHHSSSGEEKAKSSWFGLREAKDPTQKPSPHPVKPLSAAPVEGSPDRKQSRSSLSIALSSGLEKLKTVTSGSIQPVTQAPQAGQMVDTKRLKDSAVLDQSAKYYHLTHDELISLLLQRERELSQRDEHVQELESYIDRLLVRIMETSPTLLQIPPGPPK
[6]
  binding: no binding
